Test results: paper PMC4336329 (PLoS ONE, 2015)
In all, about 310,000 compounds went through this assay and about 2,200 (0.71%) showed an effect of 50% or more. The effect is printed as a negative number. The list shows a part of the results.

target: human ether-à-go-go-related gene (hERG) potassium channel (human, UniProt Q12809); assay: primary screen, population patch clamp on CHO cells stably expressing hERG
Sequence (Q12809 whole entry, looked up): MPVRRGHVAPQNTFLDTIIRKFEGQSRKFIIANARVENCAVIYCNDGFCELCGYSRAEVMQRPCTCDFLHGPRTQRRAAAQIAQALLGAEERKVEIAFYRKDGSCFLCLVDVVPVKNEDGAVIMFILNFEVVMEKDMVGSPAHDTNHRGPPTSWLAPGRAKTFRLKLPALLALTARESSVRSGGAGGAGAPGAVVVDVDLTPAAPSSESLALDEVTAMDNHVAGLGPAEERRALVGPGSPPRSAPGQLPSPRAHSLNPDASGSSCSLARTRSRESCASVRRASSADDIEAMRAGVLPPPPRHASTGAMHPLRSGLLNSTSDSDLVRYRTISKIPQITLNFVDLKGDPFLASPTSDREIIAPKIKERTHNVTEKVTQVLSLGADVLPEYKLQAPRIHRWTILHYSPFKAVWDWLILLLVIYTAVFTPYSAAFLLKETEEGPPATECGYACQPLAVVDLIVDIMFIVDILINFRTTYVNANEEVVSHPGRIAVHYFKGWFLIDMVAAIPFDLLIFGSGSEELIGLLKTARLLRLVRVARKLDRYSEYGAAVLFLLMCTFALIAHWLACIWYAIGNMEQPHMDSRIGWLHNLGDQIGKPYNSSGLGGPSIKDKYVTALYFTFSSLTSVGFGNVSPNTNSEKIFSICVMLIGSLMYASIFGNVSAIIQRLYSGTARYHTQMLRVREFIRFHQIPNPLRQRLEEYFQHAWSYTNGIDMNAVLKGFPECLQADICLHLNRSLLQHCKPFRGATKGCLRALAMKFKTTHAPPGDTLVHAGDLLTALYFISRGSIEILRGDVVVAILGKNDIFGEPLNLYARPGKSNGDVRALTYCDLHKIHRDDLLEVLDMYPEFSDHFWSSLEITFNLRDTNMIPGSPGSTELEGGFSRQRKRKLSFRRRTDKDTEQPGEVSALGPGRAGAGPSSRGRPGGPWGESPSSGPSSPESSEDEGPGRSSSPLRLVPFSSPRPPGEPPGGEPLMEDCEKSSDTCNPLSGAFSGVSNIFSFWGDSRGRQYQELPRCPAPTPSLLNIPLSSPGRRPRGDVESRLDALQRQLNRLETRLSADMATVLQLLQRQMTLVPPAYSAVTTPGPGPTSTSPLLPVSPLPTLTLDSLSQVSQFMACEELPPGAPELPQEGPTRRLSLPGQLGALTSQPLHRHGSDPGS

Compound | hERG current change (%, negative = inhibition) at 1uM
CCN(CC)CCn1c2c(c(SCC(=O)Nc3nc4ccc(C)cc4s3)nc1=O)CCC2 | -4.65%
CCOc1ccc2nc(N=Nc3c(O)[nH]c(=O)[nH]c3=O)sc2c1 | 7.48%
O=C(O)C(=O)O.c1ccc(CC2CCN(Cc3ccccn3)CC2)cc1 | 8.66%
COCCNC(=O)c1cc(-c2cccs2)on1 | 7.96%
COC(=O)c1cccc(NC(=O)C2COc3ccccc3O2)c1C (stereo not drawn) | 7.5%
Cc1cc(OCC(=O)NC(C)(C)C)ccc1Cl | 10%
O=C1c2ccccc2NC2CCCCCN12 (stereo not drawn) | 9.7%
Cc1ccc2nc(SCC(=O)N/N=C/c3ccc(C(=O)O)cc3)cc(C)c2c1 | 2.7%
c1ccc2c(Cn3ccnc3)cccc2c1 | 13.3%
COCCCNc1ncnc2sc3c(c12)CCC(C)C3 (stereo not drawn) | 7.13%
CCNS(=O)(=O)c1ccc(NC(=O)c2cccnc2)cc1 | 12.5%
Cc1nc2ccccc2n1CC(=O)N/N=C\C=C\c1ccccc1 | 12.1%
CCc1[nH]nc(C(=O)NC2CCCN(Cc3ccccc3F)C2)c1C (stereo not drawn) | 7.17%
COc1cccc(OC)c1C(=O)Nc1ccnn1C | -75.9%
Cc1ccc(NC(=O)N(CCCN2CCOCC2)Cc2cccs2)cc1C | -6.45%
CNC(=O)COC(=O)c1cc(SC)ccc1Cl | 13.9%
Cc1c(Cl)cccc1NC(=O)c1cc(-c2ccco2)on1 | 9.28%
COc1ccc2[nH]c(C)c(CCNC(=S)Nc3ccc(C)cc3)c2c1 | 9.92%
Cn1c(NCCCO)nc2c(c1=O)C1(CCCCC1)Cc1ccccc1-2 | -3.36%
O=C(NCC(c1cccnc1)N1CCN(c2ccc(F)cc2)CC1)c1ccc(F)cc1 (stereo not drawn) | -15.4%
CC(=O)Nc1cc(Cl)ccc1OS(=O)(=O)c1ccc(C)cc1 | 6.92%
CCCCNCc1cccn1-c1ccccc1.O=C(O)C(=O)O | 14.1%
S=C(NCCc1ccccc1)N1CCN(C(c2ccccc2)c2ccccc2)CC1 | 2.21%
CN(C)c1cc(-c2ccc([N+](=O)[O-])cc2)oc(=O)c1Cl | 2.91%
O=C(Nc1ccc(Nc2ccccc2)cc1)Nc1ccccc1Cl | 7.45%
COc1cccc(CN2CCN(c3ncccn3)CC2)c1OC | 10%
COc1ccc(NS(=O)(=O)c2cc(C)ccc2NC(=O)c2cc(C)oc2C)cc1 | 6.11%
